# This is one part of the list.
# Columns and labels:
# Assay in all cases: glycan array binding signal (z-score within array); higher = stronger binding
# Conditions in all cases: glycan notation: IUPAC condensed, linker removed
# [1] = target: Gal(b1-4)GlcNAc(b1-2)[Gal(b1-4)GlcNAc(b1-6)]Man(a1-6)[GlcNAc(b1-4)][Gal(b1-4)GlcNAc(b1-2)Man(a1-3)]Man(b1-4)GlcNAc(b1-4)GlcNAc
# Outline: (§1)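 The binding signal is a Z-score computed within each array and averaged over linkers. Arrays of the same protein sequence at different concentrations or buffers were also averaged together. Data originate from 3228 arrays in the Consortium for Functional Glycomics database, kept only where the protein sequence was available.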
# [2] = target: Gal(b1-4)GlcNAc(b1-2)[Gal(b1-4)GlcNAc(b1-6)]Man(a1-6)[GlcNAc(b1-4)][Gal(b1-4)GlcNAc(b1-2)[Gal(b1-4)GlcNAc(b1-4)]Man(a1-3)]Man(b1-4)GlcNAc(b1-4)[Fuc(a1-6)]GlcNAc
# Outline: as §1
# [3] = target: Gal(b1-4)GlcNAc(b1-3)Gal(b1-3)GalNAc
# Outline: as §1
# [4] = target: Gal(b1-4)GlcNAc(b1-3)Gal(b1-3)GlcNAc
# Outline: as §1
# [5] = target: Gal(b1-4)GlcNAc(b1-3)Gal(b1-4)Glc
# Outline: as §1
# [6] = target: Gal(b1-4)GlcNAc(b1-3)Gal(b1-4)GlcNAc
# Outline: as §1
# [7] = target: Gal(b1-4)GlcNAc(b1-3)Gal(b1-4)GlcNAc(b1-2)Man(a1-3)[Gal(b1-4)GlcNAc(b1-3)Gal(b1-4)GlcNAc(b1-2)Man(a1-6)]Man(b1-4)GlcNAc(b1-4)GlcNAc
# Outline: as §1
# [8] = target: Gal(b1-4)GlcNAc(b1-3)Gal(b1-4)GlcNAc(b1-2)Man(a1-3)[Gal(b1-4)GlcNAc(b1-3)Gal(b1-4)GlcNAc(b1-2)Man(a1-6)]Man(b1-4)GlcNAc(b1-4)[Fuc(a1-6)]GlcNAc
# Outline: as §1
# [9] = target: Gal(b1-4)GlcNAc(b1-3)Gal(b1-4)GlcNAc(b1-2)[Gal(b1-4)GlcNAc(b1-3)Gal(b1-4)GlcNAc(b1-6)]Man(a1-6)[Gal(b1-4)GlcNAc(b1-3)Gal(b1-4)GlcNAc(b1-2)Man(a1-3)]Man(b1-4)GlcNAc(b1-4)GlcNAc
# Outline: as §1
# [10] = target: Gal(b1-4)GlcNAc(b1-3)Gal(b1-4)GlcNAc(b1-2)[Gal(b1-4)GlcNAc(b1-3)Gal(b1-4)GlcNAc(b1-6)]Man(a1-6)[Gal(b1-4)GlcNAc(b1-3)Gal(b1-4)GlcNAc(b1-2)Man(a1-3)]Man(b1-4)GlcNAc(b1-4)[Fuc(a1-6)]GlcNAc
# Outline: as §1
# [11] = target: Gal(b1-4)GlcNAc(b1-3)Gal(b1-4)GlcNAc(b1-3)Gal(b1-4)GlcNAc
# Outline: as §1
# [12] = target: Gal(b1-4)GlcNAc(b1-3)Gal(b1-4)GlcNAc(b1-3)Gal(b1-4)GlcNAc(b1-2)Man(a1-3)[Gal(b1-4)GlcNAc(b1-3)Gal(b1-4)GlcNAc(b1-3)Gal(b1-4)GlcNAc(b1-2)Man(a1-6)]Man(b1-4)GlcNAc(b1-4)GlcNAc
# Outline: as §1
# [13] = target: Gal(b1-4)GlcNAc(b1-3)Gal(b1-4)GlcNAc(b1-3)Gal(b1-4)GlcNAc(b1-2)Man(a1-3)[Gal(b1-4)GlcNAc(b1-3)Gal(b1-4)GlcNAc(b1-3)Gal(b1-4)GlcNAc(b1-2)Man(a1-6)]Man(b1-4)GlcNAc(b1-4)[Fuc(a1-6)]GlcNAc
# Outline: as §1
# [14] = target: Gal(b1-4)GlcNAc(b1-3)Gal(b1-4)GlcNAc(b1-3)Gal(b1-4)GlcNAc(b1-2)[Gal(b1-4)GlcNAc(b1-3)Gal(b1-4)GlcNAc(b1-3)Gal(b1-4)GlcNAc(b1-6)]Man(a1-6)[Gal(b1-4)GlcNAc(b1-3)Gal(b1-4)GlcNAc(b1-3)Gal(b1-4)GlcNAc(b1-2)Man(a1-3)]Man(b1-4)GlcNAc(b1-4)[Fuc(a1-6)]GlcNAc
# Outline: as §1
# [15] = target: Gal(b1-4)GlcNAc(b1-3)Gal(b1-4)GlcNAc(b1-3)Gal(b1-4)GlcNAc(b1-3)Gal(b1-4)GlcNAc(b1-2)Man(a1-3)[Gal(b1-4)GlcNAc(b1-3)Gal(b1-4)GlcNAc(b1-3)Gal(b1-4)GlcNAc(b1-3)Gal(b1-4)GlcNAc(b1-2)Man(a1-6)]Man(b1-4)GlcNAc(b1-4)GlcNAc
# Outline: as §1
# [16] = target: Gal(b1-4)GlcNAc(b1-3)Gal(b1-4)GlcNAc(b1-3)Gal(b1-4)GlcNAc(b1-3)Gal(b1-4)GlcNAc(b1-2)Man(a1-3)[Gal(b1-4)GlcNAc(b1-3)Gal(b1-4)GlcNAc(b1-3)Gal(b1-4)GlcNAc(b1-3)Gal(b1-4)GlcNAc(b1-2)Man(a1-6)]Man(b1-4)GlcNAc(b1-4)[Fuc(a1-6)]GlcNAc
# Outline: as §1
# [17] = target: Gal(b1-4)GlcNAc(b1-3)Gal(b1-4)GlcNAc(b1-3)Gal(b1-4)GlcNAc(b1-3)Gal(b1-4)GlcNAc(b1-2)[Gal(b1-4)GlcNAc(b1-3)Gal(b1-4)GlcNAc(b1-3)Gal(b1-4)GlcNAc(b1-3)Gal(b1-4)GlcNAc(b1-6)]Man(a1-6)[Gal(b1-4)GlcNAc(b1-3)Gal(b1-4)GlcNAc(b1-3)Gal(b1-4)GlcNAc(b1-3)Gal(b1-4)GlcNAc(b1-2)Man(a1-3)]Man(b1-4)GlcNAc(b1-4)[Fuc(a1-6)]GlcNAc
# Outline: as §1
# [18] = target: Gal(b1-4)GlcNAc(b1-3)Gal(b1-4)GlcNAc(b1-3)Gal(b1-4)GlcNAc(b1-3)Gal(b1-4)GlcNAc(b1-3)Gal(b1-4)GlcNAc(b1-2)Man(a1-3)[Gal(b1-4)GlcNAc(b1-3)Gal(b1-4)GlcNAc(b1-3)Gal(b1-4)GlcNAc(b1-3)Gal(b1-4)GlcNAc(b1-3)Gal(b1-4)GlcNAc(b1-2)Man(a1-6)]Man(b1-4)GlcNAc(b1-4)GlcNAc
# Outline: as §1
# [19] = target: Gal(b1-4)GlcNAc(b1-3)Gal(b1-4)GlcNAc(b1-3)Gal(b1-4)GlcNAc(b1-3)Gal(b1-4)GlcNAc(b1-3)Gal(b1-4)GlcNAc(b1-2)Man(a1-3)[Gal(b1-4)GlcNAc(b1-3)Gal(b1-4)GlcNAc(b1-3)Gal(b1-4)GlcNAc(b1-3)Gal(b1-4)GlcNAc(b1-3)Gal(b1-4)GlcNAc(b1-2)Man(a1-6)]Man(b1-4)GlcNAc(b1-4)[Fuc(a1-6)]GlcNAc
# Outline: as §1
# [20] = target: Gal(b1-4)GlcNAc(b1-3)Gal(b1-4)GlcNAc(b1-3)Gal(b1-4)GlcNAc(b1-3)Gal(b1-4)GlcNAc(b1-3)Gal(b1-4)GlcNAc(b1-2)[Gal(b1-4)GlcNAc(b1-3)Gal(b1-4)GlcNAc(b1-3)Gal(b1-4)GlcNAc(b1-3)Gal(b1-4)GlcNAc(b1-3)Gal(b1-4)GlcNAc(b1-6)]Man(a1-6)[Gal(b1-4)GlcNAc(b1-3)Gal(b1-4)GlcNAc(b1-3)Gal(b1-4)GlcNAc(b1-3)Gal(b1-4)GlcNAc(b1-3)Gal(b1-4)GlcNAc(b1-2)Man(a1-3)]Man(b1-4)GlcNAc(b1-4)[Fuc(a1-6)]GlcNAc
# Outline: as §1
# [21] = target: Gal(b1-4)GlcNAc(b1-3)Gal(b1-4)GlcNAc(b1-3)Gal(b1-4)GlcNAc(b1-3)Gal(b1-4)GlcNAc(b1-3)Gal(b1-4)GlcNAc(b1-3)Gal(b1-4)GlcNAc(b1-2)Man(a1-3)[Gal(b1-4)GlcNAc(b1-3)Gal(b1-4)GlcNAc(b1-3)Gal(b1-4)GlcNAc(b1-3)Gal(b1-4)GlcNAc(b1-3)Gal(b1-4)GlcNAc(b1-3)Gal(b1-4)GlcNAc(b1-2)Man(a1-6)]Man(b1-4)GlcNAc(b1-4)GlcNAc
# Outline: as §1
# [22] = target: Gal(b1-4)GlcNAc(b1-3)Gal(b1-4)GlcNAc(b1-3)GalNAc
# Outline: as §1
# [23] = target: Gal(b1-4)GlcNAc(b1-3)Gal(b1-4)GlcNAc(b1-3)[Gal(b1-4)GlcNAc(b1-3)Gal(b1-4)GlcNAc(b1-6)]GalNAc
# Outline: as §1
# [24] = target: Gal(b1-4)GlcNAc(b1-3)Gal(b1-4)GlcNAc(b1-6)[Gal(b1-3)]GalNAc
# Outline: as §1
# [25] = target: Gal(b1-4)GlcNAc(b1-3)Gal(b1-4)[Fuc(a1-3)]GlcNAc(b1-3)Gal(b1-4)[Fuc(a1-3)]GlcNAc
# Outline: as §1
# [26] = target: Gal(b1-4)GlcNAc(b1-3)GalNAc
# Outline: as §1
# [27] = target: Gal(b1-4)GlcNAc(b1-3)[Fuc(a1-3)GlcNAc(b1-6)]Gal(b1-4)Glc
# Outline: as §1
# [28] = target: Gal(b1-4)GlcNAc(b1-3)[Gal(b1-4)GlcNAc(b1-6)]Gal(b1-4)GlcNAc
# Outline: as §1
# [29] = target: Gal(b1-4)GlcNAc(b1-3)[GlcNAc(b1-6)]Gal(b1-4)GlcNAc
# Outline: as §1
# [30] = target: Gal(b1-4)GlcNAc(b1-6)Gal(b1-4)GlcNAc
# Outline: as §1
# [31] = target: Gal(b1-4)GlcNAc(b1-6)GalNAc
# Outline: as §1
# [32] = target: Gal(b1-4)GlcNAc(b1-6)[Gal(b1-3)]GalNAc
# Outline: as §1
# [33] = target: Gal(b1-4)GlcNAc(b1-6)[Gal(b1-4)GlcNAc(b1-3)]GalNAc
# Outline: as §1
# Gal(b1-4)GlcNAc6P = target: Gal(b1-4)GlcNAc6P
# Outline: as §1
# Gal(b1-6)Gal = target: Gal(b1-6)Gal
# Outline: as §1
# Gal3S(b1-3)GalNAc = target: Gal3S(b1-3)GalNAc
# Outline: as §1
# Gal3S(b1-3)GlcNAc = target: Gal3S(b1-3)GlcNAc
# Outline: as §1
# [34] = target: Gal3S(b1-3)[Fuc(a1-4)]GlcNAc
# Outline: as §1
binder,measurement,setting,value
OGAA (protein) MVQKESQATLEERESELSSNPAASAGASLEPPAAPAPGEDNPAGAGGAAVAGAAGGARRFLCGVVEGFYGRPWVMEQRKELFRRLQKWELNTYLYAPKDDYKHRMFWREMYSVEEAEQLMTLISAAREYEIEFIYAISPGLDITFSNPKEVSTLKRKLDQVSQFGCRSFALLFADIDHNMCAADKEVFSSFAHAQVSITNEIYQYLGEPETFLFCPTEYCGTFCYPNVSQSPYLRTVGEKLLPGIEVLWTGPKVVSKEIPVESIEEVSKIIKRAPVIWDNIHANDYDQKRLFLGPYKGRSTELIPRLKGVLTNPNCEFEANYVAIHTLATWYKSNMNGVRKDVVMTDSEDSTVSIQIKLENEGSDEDIETDVLYSPQMALKLALTEWLQEFGVPHQY,glycan array binding signal (z-score),[1],-0.05
same,glycan array binding signal (z-score),[2],0.002
same,glycan array binding signal (z-score),[3],-0.11
same,glycan array binding signal (z-score),[4],-0.097
same,glycan array binding signal (z-score),[5],-0.1
same,glycan array binding signal (z-score),[6],-0.093
same,glycan array binding signal (z-score),[7],0.053
same,glycan array binding signal (z-score),[8],0.021
same,glycan array binding signal (z-score),[9],-0.077
same,glycan array binding signal (z-score),[10],0.002
same,glycan array binding signal (z-score),[11],-0.099
same,glycan array binding signal (z-score),[12],-0.045
same,glycan array binding signal (z-score),[13],-0.013
same,glycan array binding signal (z-score),[14],-0.002
same,glycan array binding signal (z-score),[15],-0.04
same,glycan array binding signal (z-score),[16],-0.067
same,glycan array binding signal (z-score),[17],-0.072
same,glycan array binding signal (z-score),[18],-0.014
same,glycan array binding signal (z-score),[19],-0.04
same,glycan array binding signal (z-score),[20],0.078
same,glycan array binding signal (z-score),[21],0.017
same,glycan array binding signal (z-score),[22],-0.081
same,glycan array binding signal (z-score),[23],-0.071
same,glycan array binding signal (z-score),[24],-0.055
same,glycan array binding signal (z-score),[25],-0.086
same,glycan array binding signal (z-score),[26],-0.07
same,glycan array binding signal (z-score),[27],-0.092
same,glycan array binding signal (z-score),[28],-0.106
same,glycan array binding signal (z-score),[29],-0.128
same,glycan array binding signal (z-score),[30],-0.136
same,glycan array binding signal (z-score),[31],-0.007
same,glycan array binding signal (z-score),[32],-0.067
same,glycan array binding signal (z-score),[33],0.016
same,glycan array binding signal (z-score),Gal(b1-4)GlcNAc6P,-0.069
same,glycan array binding signal (z-score),Gal(b1-6)Gal,-0.105
same,glycan array binding signal (z-score),Gal3S(b1-3)GalNAc,-0.021
same,glycan array binding signal (z-score),Gal3S(b1-3)GlcNAc,0.007
same,glycan array binding signal (z-score),[34],0.042

# Reference: the supplement of paper PMC8728848
